Among all 2,700 compounds or so, about 160 (5.9%) showed an effect of 50% or more. This is one part of the list.
Molecular target: Nonstructural protein 3 (Zika virus) (UniProt A0A024AXB9)
[1] = PRVABC59, Concentration 15.0 uM, Number of replicates 1.0
[2] = PRVABC59, Concentration 50.0 uM, Number of replicates 1.0
[3] = PRVABC59, Concentration 10.0 uM, Number of replicates 1.0

Sequence of UniProt A0A024AXB9 (A0A024AXB9 as listed by the source): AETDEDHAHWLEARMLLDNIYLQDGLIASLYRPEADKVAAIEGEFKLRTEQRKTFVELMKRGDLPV

## NCc1cn(C2CCN(c3nc(-c4ccccc4)cs3)CC2)nn1
PRVABC59, Concentration 49.5 uM, Number of replicates 2.0, Standard deviation 1.0691457653779137 %
  inhibition: 1.26%
PRVABC59, Concentration 99.01 uM, Number of replicates 2.0, Standard deviation 0.02782164046422328 %
  inhibition: 5.38%
PRVABC59, Concentration 198.0 uM, Number of replicates 2.0, Standard deviation 0.8227253647207844 %
  inhibition: 15.4%

## Cc1cc(CO)c2cccc(Cc3ccccc3C(=O)N3CCC(C(=O)O)CC3)c2n1
PRVABC59, Concentration 49.95 uM, Number of replicates 2.0, Standard deviation 1.0591789629357544 %
  inhibition: -4.89%
PRVABC59, Concentration 99.9 uM, Number of replicates 2.0, Standard deviation 2.3071221964090083 %
  inhibition: -5.26%

## COc1cc(CNC(=O)c2cc(Cl)ccc2NS(=O)(=O)c2ccc(Oc3ccccc3Cl)cc2)ccc1O
[1]
  inhibition: 28.5%

## O=C(NC1CCN(C(=O)C2CC2)CC1)c1cc(Cl)ccc1NS(=O)(=O)c1ccc(Oc2ccccc2Cl)cc1
[1]
  inhibition: 6.15%

## O=C(Nc1cc(C(F)(F)F)ccc1Cl)c1cc(Cl)ccc1NS(=O)(=O)c1ccc(Oc2ccccc2Cl)cc1
[1]
  inhibition: 24.4%

## O=Cc1ccc(N2CCC(C(=O)N(CCN3CCOCC3)Cc3ccco3)CC2)cc1
[2]
  inhibition: 18%

## CNS(=O)(=O)NCCNC(=O)c1ccc(O)c(NC(=O)c2ccncc2F)c1C
PRVABC59, Concentration 49.5 uM, Number of replicates 2.0, Standard deviation 2.056569128667992 %
  inhibition: -4.03%
PRVABC59, Concentration 99.01 uM, Number of replicates 2.0, Standard deviation 5.343274953075567 %
  inhibition: -0.849%
PRVABC59, Concentration 198.0 uM, Number of replicates 2.0, Standard deviation 0.6700231178809642 %
  inhibition: 3.9%

## Cc1cc(O)c2cccc(Cl)c2n1
PRVABC59, Concentration 99.9 uM, Number of replicates 2.0, Standard deviation 14.089623179297288 %
  inhibition: -6.85%

## CC(C)(C)N(Cc1ccsc1)C(=O)C1CCN(c2ccc(C=O)cc2)CC1
[2]
  inhibition: 25.7%

## Nc1ccc(-c2ccc3c(c2)B(O)OC3)cn1
PRVABC59, Concentration 49.5 uM, Number of replicates 2.0, Standard deviation 1.6416065153888901 %
  inhibition: -0.883%
PRVABC59, Concentration 99.01 uM, Number of replicates 2.0, Standard deviation 2.0812389013600248 %
  inhibition: -1.95%
PRVABC59, Concentration 198.0 uM, Number of replicates 2.0, Standard deviation 1.5012983922906686 %
  inhibition: -3.72%

## CCc1noc2ncc(S(=O)(=O)N3CCCN(c4ncccc4C(N)=O)CC3)cc12
PRVABC59, Concentration 49.5 uM, Number of replicates 2.0, Standard deviation 0.01391082023211164 %
  inhibition: -0.993%
PRVABC59, Concentration 99.01 uM, Number of replicates 2.0, Standard deviation 1.1426743564998976 %
  inhibition: 0.077%
PRVABC59, Concentration 198.0 uM, Number of replicates 2.0, Standard deviation 2.187973087278847 %
  inhibition: 1.39%

## O=Cc1ccc(N2CCC(C(=O)N3CCN(C(=O)[C@@H]4COc5ccccc5O4)CC3)CC2)cc1
[2]
  inhibition: 22.2%

## O=Cc1ccc(N2CCC(C(=O)Nc3ccc(SC(F)(F)F)cc3)CC2)cc1
[2]
  inhibition: 23%

## O=C(N[C@H]1C[C@@H]1c1ccc(F)c(F)c1)c1cc(Cl)ccc1NS(=O)(=O)c1ccc(Oc2ccccc2Cl)cc1
[1]
  inhibition: 25.4%

## O=C(NCc1cccc(Cl)c1Cl)c1cc(Cl)ccc1NS(=O)(=O)c1ccc(Oc2ccccc2Cl)cc1
[1]
  inhibition: 32.7%

## CSc1ncc(C#N)c(NC(=O)C2CCN(c3ccc(C=O)cc3)CC2)n1
[2]
  inhibition: 20.4%

## O=Cc1ccc(N2CCC(C(=O)Nc3ccccc3OCC(F)(F)F)CC2)cc1
[2]
  inhibition: 22.1%

## O=C(Nc1ccc(OCc2ccccn2)c(Cl)c1)c1cc(Cl)ccc1NS(=O)(=O)c1ccc(Oc2ccccc2Cl)cc1
[1]
  inhibition: 41.3%

## Cc1cc(-n2nccc2NC(=O)[C@]2(c3ccc(F)cc3)CCCNC2)ncn1
PRVABC59, Concentration 49.5 uM, Number of replicates 2.0, Standard deviation 3.3341951652888615 %
  inhibition: 3.08%
PRVABC59, Concentration 99.01 uM, Number of replicates 2.0, Standard deviation 1.8407534934696543 %
  inhibition: 6.24%
PRVABC59, Concentration 198.0 uM, Number of replicates 2.0, Standard deviation 2.0184955201845844 %
  inhibition: 11.4%

## C[C@@H](c1cccc2ccccc12)N(C)C(=O)C1CCN(c2ccc(C=O)cc2)CC1
[2]
  inhibition: 26.9%

## O=Cc1ccc(N2CCC(C(=O)NCc3cc(F)c(F)c(F)c3)CC2)cc1
[3]
  inhibition: 27.3%

## CNC(=O)c1nc(C)c(C)c(N2CC[C@@H](NC(=O)c3[nH]cnc3C(C)(C)C)C2)n1
PRVABC59, Concentration 49.5 uM, Number of replicates 2.0, Standard deviation 2.081122365323892 %
  inhibition: -0.757%
PRVABC59, Concentration 99.01 uM, Number of replicates 2.0, Standard deviation 1.432539517867814 %
  inhibition: 1.43%
PRVABC59, Concentration 198.0 uM, Number of replicates 2.0, Standard deviation 2.8388126139814567 %
  inhibition: 4.59%

## C[C@@H](CNC(=O)c1cc(Cl)ccc1NS(=O)(=O)c1ccc(Oc2ccccc2Cl)cc1)N(C)c1ccccc1
[1]
  inhibition: 24.5%

## CN(C(=O)c1cc(Cl)ccc1NS(=O)(=O)c1ccc(Oc2ccccc2Cl)cc1)[C@H]1CS(=O)(=O)C[C@@H]1O
[1]
  inhibition: 1.21%

## Cc1ccc(C(=O)N2CCC(NC(=O)c3cc(Cl)ccc3NS(=O)(=O)c3ccc(Oc4ccccc4Cl)cc3)CC2)cc1
[1]
  inhibition: 10.3%

## Cc1cc(CO)c2cccc(C[C@H](NC(=O)Cc3c(C)c4c(=O)[nH]n(C)c4[nH]c3=O)C(=O)O)c2n1
PRVABC59, Concentration 49.95 uM, Number of replicates 2.0, Standard deviation 1.4552620640117953 %
  inhibition: -3.13%
PRVABC59, Concentration 99.9 uM, Number of replicates 2.0, Standard deviation 1.129082630057862 %
  inhibition: 1.42%

## Cc1[nH]c(C#N)cc1C(=O)N(C)C1CCN(C(=O)c2ccc3c(C)n[nH]c3c2)CC1
PRVABC59, Concentration 49.5 uM, Number of replicates 2.0, Standard deviation 3.083795132754788 %
  inhibition: -0.895%
PRVABC59, Concentration 99.01 uM, Number of replicates 2.0, Standard deviation 3.688762314029368 %
  inhibition: 0.363%
PRVABC59, Concentration 198.0 uM, Number of replicates 2.0, Standard deviation 2.4301229690473223 %
  inhibition: 2.36%

## Cn1cc(NC(=O)c2ccccc2C(F)(F)F)c(-c2ccc(N)nc2)n1
PRVABC59, Concentration 49.5 uM, Number of replicates 2.0, Standard deviation 1.6563133210019785 %
  inhibition: -3.24%
PRVABC59, Concentration 99.01 uM, Number of replicates 2.0, Standard deviation 1.8102304086032768 %
  inhibition: -3.79%
PRVABC59, Concentration 198.0 uM, Number of replicates 2.0, Standard deviation 1.7993335938018762 %
  inhibition: -1.78%

## COc1cc(C(=O)NCCO)nc(N2CCNCC2)n1
PRVABC59, Concentration 49.5 uM, Number of replicates 2.0, Standard deviation 2.487605622738481 %
  inhibition: -5.06%
PRVABC59, Concentration 99.01 uM, Number of replicates 2.0, Standard deviation 3.0621706806019096 %
  inhibition: -6.15%
PRVABC59, Concentration 198.0 uM, Number of replicates 2.0, Standard deviation 3.3799226836086955 %
  inhibition: -4.46%

## CNC(=O)c1cc(Cl)ccc1NS(=O)(=O)c1cc(Cl)cc(C(=O)NC)c1OC
PRVABC59, Concentration 49.5 uM, Number of replicates 2.0, Standard deviation 3.3855207762004267 %
  inhibition: 2.41%
PRVABC59, Concentration 99.01 uM, Number of replicates 2.0, Standard deviation 5.195492929330909 %
  inhibition: 7.41%
PRVABC59, Concentration 198.0 uM, Number of replicates 2.0, Standard deviation 4.6757612585549415 %
  inhibition: 13.7%

## CNC(=O)C[C@H]1CCN1S(=O)(=O)c1ccc(Oc2ccccc2Cl)cc1
PRVABC59, Concentration 49.5 uM, Number of replicates 2.0, Standard deviation 2.758296707579094 %
  inhibition: -0.578%
PRVABC59, Concentration 99.01 uM, Number of replicates 2.0, Standard deviation 2.5849784140838667 %
  inhibition: 0.719%
PRVABC59, Concentration 198.0 uM, Number of replicates 2.0, Standard deviation 2.354592023299434 %
  inhibition: 4.24%

## O=C(NCCc1cc(Cl)ccc1Cl)c1cc(Cl)ccc1NS(=O)(=O)c1ccc(Oc2ccccc2Cl)cc1
[1]
  inhibition: 16.2%

## Cc1cc(CO)c2cccc(Cc3ccccc3C(=O)NCc3sccc3C)c2n1
PRVABC59, Concentration 49.95 uM, Number of replicates 2.0, Standard deviation 0.8704140180486788 %
  inhibition: -7.89%
PRVABC59, Concentration 99.9 uM, Number of replicates 2.0, Standard deviation 3.3610577542152194 %
  inhibition: -4.68%

## O=C(NCc1ccc(-c2ccccc2)cc1)c1cc(Cl)ccc1NS(=O)(=O)c1ccc(Oc2ccccc2Cl)cc1
[1]
  inhibition: 9%

## COc1cc(CC(=O)NCc2ccccn2)nc(N2CCNCC2)n1
PRVABC59, Concentration 49.5 uM, Number of replicates 2.0, Standard deviation 1.9153722971220695 %
  inhibition: -5.67%
PRVABC59, Concentration 99.01 uM, Number of replicates 2.0, Standard deviation 1.5355688377518466 %
  inhibition: -5.4%
PRVABC59, Concentration 198.0 uM, Number of replicates 2.0, Standard deviation 2.2860895703029196 %
  inhibition: -5.81%

## CCN(Cc1ccc(C(F)(F)F)cc1)C(=O)c1cc(Cl)ccc1NS(=O)(=O)c1ccc(Oc2ccccc2Cl)cc1
[1]
  inhibition: 23.3%

## O=C(NC12CC3CC(CC(C3)C1)C2)c1cc(Cl)ccc1NS(=O)(=O)c1ccc(Oc2ccccc2Cl)cc1
[1]
  inhibition: 27.2%

## COc1ccc([C@@H](C)NC(=O)C2CCN(c3ccc(C=O)cc3)CC2)cc1OC
[3]
  inhibition: 22.9%

## CS(=O)(=O)Nc1ccc(C(=O)Nc2nc3ccccc3s2)cc1
PRVABC59, Concentration 49.5 uM, Number of replicates 2.0, Standard deviation 0.4203534480847361 %
  inhibition: -1.75%
PRVABC59, Concentration 99.01 uM, Number of replicates 2.0, Standard deviation 1.620548095411513 %
  inhibition: -1.84%
PRVABC59, Concentration 198.0 uM, Number of replicates 2.0, Standard deviation 1.02140189967847 %
  inhibition: -1.45%

## Cc1c(NC(=O)C2CCN(c3ccc(C=O)cc3)CC2)c(=O)n(-c2ccccc2)n1C
[2]
  inhibition: 25.6%

## CNC(=O)c1cc(Cl)cc(C)c1NS(=O)(=O)c1ccc(Oc2ccccc2Cl)cc1
PRVABC59, Concentration 49.5 uM, Number of replicates 2.0, Standard deviation 3.2928672721913825 %
  inhibition: -0.951%
PRVABC59, Concentration 99.01 uM, Number of replicates 2.0, Standard deviation 3.4234503366337914 %
  inhibition: -2.2%
PRVABC59, Concentration 198.0 uM, Number of replicates 2.0, Standard deviation 3.9523113625087185 %
  inhibition: -3.57%

Source: ChEMBL document CHEMBL5606458, “ASAP - ZIKV NS2B-NS3 protease fluorescence single point” (2024)
